By IC50 is meant the dose at which the fit gives 50% viability; fits outside the tested doses are given as limits. AUC sums up the same curve from the lowest dose to the 256-fold higher top dose; the more sensitive the line, the further below 1. An inferred top dose was calculated from the reported fits. An entry number marks a drug with two screens in the source, which often give different values.
Compound: NC(=O)[C@@H](CCC(F)(F)F)N(Cc1ccc(-c2ncon2)cc1F)S(=O)(=O)c1ccc(Cl)cc1 [BMS-708163]
Assay: Viability of human cancer cell lines after 72 h of drug (GDSC screen)
Settings: screen: GDSC drug entry 205; top dose inferred
Description: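 Human cancer cell lines in 384-well plates, medium with 10% serum, drug for 72 h over a 256-fold dose range (nine 2-fold or five 4-fold steps up to the top dose). Adherent lines were fixed and stained with the nucleic acid dye Syto60, suspension lines read with resazurin; signal relative to control wells, capped at 0 and 100%. One two-parameter sigmoid per drug and line, fitted in a mixed model over all curves with the slope shared within a line.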

In order of falling AUC:
1. KY821 (leukaemia, suspension, top dose 10.24 µM)  0.991
2. MS751 (cervix, adherent, top dose 10.24 µM)  0.99
3. HT (B-cell lymphoma, suspension, top dose 10.24 µM)  0.99
4. UACC-812 (breast, adherent, top dose 10.24 µM)  0.99
5. BFTC-905 (bladder, adherent, top dose 10.24 µM)  0.99
6. MOLT-4 (lymphoblastic leukaemia, suspension, top dose 2.56 µM)  0.989
7. IGR-37 (melanoma, adherent, top dose 10.24 µM)  0.989
8. RL (B-cell lymphoma, suspension, top dose 10.24 µM)  0.989
9. JHH-7 (liver, adherent, top dose 10.24 µM)  0.989
10. SUP-T1 (T-cell lymphoblastic leukaemia, suspension, top dose 2.56 µM)  0.988
11. MEG-01 (chronic myeloid leukaemia, suspension, top dose 10.24 µM)  0.988
12. SBC-3 (small cell lung carcinoma, adherent, top dose 10.24 µM)  0.988
13. MDA-MB-157 (breast, adherent, top dose 10.24 µM)  0.988
14. LB831-BLC (bladder, adherent, top dose 10.24 µM)  0.987
15. OE19 (oesophagus, adherent, top dose 10.24 µM)  0.986
16. NCI-H187 (small cell lung carcinoma, suspension, top dose 10.24 µM)  0.986
17. OACM5-1 (oesophagus, semi-adherent, top dose 10.24 µM)  0.986
18. GI-1 (glioma, adherent, top dose 10.24 µM)  0.986
19. D-566MG (glioma, adherent, top dose 10.24 µM)  0.986
20. MDA-MB-330 (breast, adherent, top dose 10.24 µM)  0.985
21. CS1 (bone, adherent, top dose 10.24 µM)  0.984
22. SNU-387 (liver, adherent, top dose 10.24 µM)  0.984
23. TE-5 (oesophagus, adherent, top dose 10.24 µM)  0.984
24. NCI-H2452 (mesothelioma, adherent, top dose 10.24 µM)  0.984
25. Calu-6 (lung adenocarcinoma, adherent, top dose 2.56 µM)  0.984
26. IST-SL1 (small cell lung carcinoma, semi-adherent, top dose 10.24 µM)  0.984
27. PA-TU-8902 (pancreas, adherent, top dose 10.24 µM)  0.983
28. EBC-1 (lung squamous cell carcinoma, adherent, top dose 10.24 µM)  0.983
29. JHU-022 (head and neck, adherent, top dose 10.24 µM)  0.982
30. UACC-893 (breast, adherent, top dose 10.24 µM)  0.982
31. SCC-4 (head and neck, adherent, top dose 10.24 µM)  0.982
32. EFO-27 (ovary, adherent, top dose 10.24 µM)  0.981
33. RO82-W-1 (thyroid, adherent, top dose 10.24 µM)  0.981
34. RCC-JF (kidney, adherent, top dose 10.24 µM)  0.981
35. NCI-H1688 (small cell lung carcinoma, adherent, top dose 10.24 µM)  0.98
36. SUP-B15 (lymphoblastic leukaemia, suspension, top dose 10.24 µM)  0.978
37. HCC1937 (breast, adherent, top dose 10.24 µM)  0.978
38. H-EMC-SS (chondrosarcoma, adherent, top dose 10.24 µM)  0.977
39. G-402 (soft tissue, adherent, top dose 10.24 µM)  0.977
40. NCI-H2227 (small cell lung carcinoma, semi-adherent, top dose 10.24 µM)  0.976
41. NCI-H292 (lung adenocarcinoma, adherent, top dose 10.24 µM)  0.976
42. SK-MM-2 (myeloma, suspension, top dose 10.24 µM)  0.976
43. D-392MG (glioma, adherent, top dose 10.24 µM)  0.975
44. PC-3 (prostate, adherent, top dose 10.24 µM)  0.974
45. SLVL (B-cell lymphoma, suspension, top dose 10.24 µM)  0.974
46. Ca-Ski (cervix, adherent, top dose 10.24 µM)  0.973
47. OV-7 (ovary, adherent, top dose 10.24 µM)  0.973
48. KYSE-140 (oesophagus, adherent, top dose 10.24 µM)  0.972
49. MDA-MB-231 (breast, adherent, top dose 10.24 µM)  0.972
50. OCI-LY-19 (B-cell lymphoma, suspension, top dose 10.24 µM)  0.969
51. HT-29 (large intestine, adherent, top dose 10.24 µM)  0.966
52. YT (lymphoid neoplasm, suspension, top dose 10.24 µM)  0.965
53. EW-3 (Ewing sarcoma, adherent, top dose 10.24 µM)  0.953
54. NCC021 (kidney, adherent, top dose 10.24 µM)  0.95
55. NCI-H1755 (lung adenocarcinoma, adherent, top dose 10.24 µM)  0.931

“NCI-H2227 (small cell lung carcinoma, semi-adherent, top dose 10.24 µM)” and “MOLT-4 (lymphoblastic leukaemia, suspension, top dose 2.56 µM)” cannot be ordered by IC50: over 10.2 µM for the first, over 2.56 µM for the second.

“SUP-T1 (T-cell lymphoblastic leukaemia, suspension, top dose 2.56 µM)” and “MDA-MB-330 (breast, adherent, top dose 10.24 µM)” cannot be ordered by IC50: over 2.56 µM for the first, over 10.2 µM for the second.

“IGR-37 (melanoma, adherent, top dose 10.24 µM)” and “NCI-H292 (lung adenocarcinoma, adherent, top dose 10.24 µM)” cannot be ordered by IC50: over 10.2 µM for the first, over 10.2 µM for the second.

“EFO-27 (ovary, adherent, top dose 10.24 µM)” and “RO82-W-1 (thyroid, adherent, top dose 10.24 µM)” cannot be ordered by IC50: over 10.2 µM for the first, over 10.2 µM for the second.

“PA-TU-8902 (pancreas, adherent, top dose 10.24 µM)” and “SUP-B15 (lymphoblastic leukaemia, suspension, top dose 10.24 µM)” cannot be ordered by IC50: over 10.2 µM for the first, over 10.2 µM for the second.

CS1 (bone, adherent, top dose 10.24 µM) and “Ca-Ski (cervix, adherent, top dose 10.24 µM)” cannot be ordered by IC50: over 10.2 µM for the first, over 10.2 µM for the second.

“OE19 (oesophagus, adherent, top dose 10.24 µM)” and “KYSE-140 (oesophagus, adherent, top dose 10.24 µM)” cannot be ordered by IC50: over 10.2 µM for the first, over 10.2 µM for the second.

“JHU-022 (head and neck, adherent, top dose 10.24 µM)” and “KY821 (leukaemia, suspension, top dose 10.24 µM)” cannot be ordered by IC50: over 10.2 µM for the first, over 10.2 µM for the second.

“SK-MM-2 (myeloma, suspension, top dose 10.24 µM)” and “D-392MG (glioma, adherent, top dose 10.24 µM)” cannot be ordered by IC50: over 10.2 µM for the first, over 10.2 µM for the second.

“LB831-BLC (bladder, adherent, top dose 10.24 µM)” and “NCC021 (kidney, adherent, top dose 10.24 µM)” cannot be ordered by IC50: over 10.2 µM for the first, over 10.2 µM for the second.

“MS751 (cervix, adherent, top dose 10.24 µM)” and “YT (lymphoid neoplasm, suspension, top dose 10.24 µM)” cannot be ordered by IC50: over 10.2 µM for the first, over 10.2 µM for the second.

“EBC-1 (lung squamous cell carcinoma, adherent, top dose 10.24 µM)” and “UACC-893 (breast, adherent, top dose 10.24 µM)” cannot be ordered by IC50: over 10.2 µM for the first, over 10.2 µM for the second.

“NCI-H1755 (lung adenocarcinoma, adherent, top dose 10.24 µM)” and “NCI-H187 (small cell lung carcinoma, suspension, top dose 10.24 µM)” cannot be ordered by IC50: over 10.2 µM for the first, over 10.2 µM for the second.

“SNU-387 (liver, adherent, top dose 10.24 µM)” and “MEG-01 (chronic myeloid leukaemia, suspension, top dose 10.24 µM)” cannot be ordered by IC50: over 10.2 µM for the first, over 10.2 µM for the second.

“HT (B-cell lymphoma, suspension, top dose 10.24 µM)” and “SBC-3 (small cell lung carcinoma, adherent, top dose 10.24 µM)” cannot be ordered by IC50: over 10.2 µM for the first, over 10.2 µM for the second.

“TE-5 (oesophagus, adherent, top dose 10.24 µM)” and “RL (B-cell lymphoma, suspension, top dose 10.24 µM)” cannot be ordered by IC50: over 10.2 µM for the first, over 10.2 µM for the second.

“JHH-7 (liver, adherent, top dose 10.24 µM)” and “EW-3 (Ewing sarcoma, adherent, top dose 10.24 µM)” cannot be ordered by IC50: over 10.2 µM for the first, over 10.2 µM for the second.

“MDA-MB-157 (breast, adherent, top dose 10.24 µM)” and “RCC-JF (kidney, adherent, top dose 10.24 µM)” cannot be ordered by IC50: over 10.2 µM for the first, over 10.2 µM for the second.

“OCI-LY-19 (B-cell lymphoma, suspension, top dose 10.24 µM)” and “HCC1937 (breast, adherent, top dose 10.24 µM)” cannot be ordered by IC50: over 10.2 µM for the first, over 10.2 µM for the second.

“NCI-H2452 (mesothelioma, adherent, top dose 10.24 µM)” and “PC-3 (prostate, adherent, top dose 10.24 µM)” cannot be ordered by IC50: over 10.2 µM for the first, over 10.2 µM for the second.

“OACM5-1 (oesophagus, semi-adherent, top dose 10.24 µM)” and “HT-29 (large intestine, adherent, top dose 10.24 µM)” cannot be ordered by IC50: over 10.2 µM for the first, over 10.2 µM for the second.

“SLVL (B-cell lymphoma, suspension, top dose 10.24 µM)” and “Calu-6 (lung adenocarcinoma, adherent, top dose 2.56 µM)” cannot be ordered by IC50: over 10.2 µM for the first, over 2.56 µM for the second.

“NCI-H1688 (small cell lung carcinoma, adherent, top dose 10.24 µM)” and “OV-7 (ovary, adherent, top dose 10.24 µM)” cannot be ordered by IC50: over 10.2 µM for the first, over 10.2 µM for the second.

“UACC-812 (breast, adherent, top dose 10.24 µM)” and “BFTC-905 (bladder, adherent, top dose 10.24 µM)” cannot be ordered by IC50: over 10.2 µM for the first, over 10.2 µM for the second.

“H-EMC-SS (chondrosarcoma, adherent, top dose 10.24 µM)” and “GI-1 (glioma, adherent, top dose 10.24 µM)” cannot be ordered by IC50: over 10.2 µM for the first, over 10.2 µM for the second.

“G-402 (soft tissue, adherent, top dose 10.24 µM)” and “D-566MG (glioma, adherent, top dose 10.24 µM)” cannot be ordered by IC50: over 10.2 µM for the first, over 10.2 µM for the second.

“SCC-4 (head and neck, adherent, top dose 10.24 µM)” and “MDA-MB-231 (breast, adherent, top dose 10.24 µM)” cannot be ordered by IC50: over 10.2 µM for the first, over 10.2 µM for the second.

“IST-SL1 (small cell lung carcinoma, semi-adherent, top dose 10.24 µM)” gave an IC50 of over 10.2 µM.

Same assay, conditions: top dose 5 µM; screen: GDSC drug entry 1072; top dose inferred

In order of falling AUC:
1. RCH-ACV (B-cell leukaemia, suspension)  0.991
2. RCC-MF (kidney, adherent)  0.98
3. YKG-1 (glioma, adherent)  0.98
4. JHOS-3 (ovary, adherent)  0.979
5. SNU-407 (large intestine, adherent)  0.934

RCH-ACV (B-cell leukaemia, suspension) and SNU-407 (large intestine, adherent) cannot be ordered by IC50: over 5 µM for the first, over 5 µM for the second.

JHOS-3 (ovary, adherent) and RCC-MF (kidney, adherent) cannot be ordered by IC50: over 5 µM for the first, over 5 µM for the second.

For YKG-1 (glioma, adherent), the IC50 was over 5 µM.

Source: the supplement of paper PMC4967469
